# Some of the results follow.
# B1: Mannose Binding Protein (Lactobacillus plantarum) (protein)
# chain: AERSEAALTHVDKDNFLKYFSLNGSATYDAKTGIVTITPNQNNQVGNFSLTSKIDMNKSFTLTGQVNLGSNPNGADGIGFAFHSGNTTDVGNAGGNLGIGGLQDAIGFKLDTWFNSYQAPSSDKNGSEISSTNSNGFGWNGDSANAPYGTFVKTSNQEISTANGSKVQRWWAQDTGESQALSKADIDGNFHDFVVNYDGATRTLTVSYTQASGKVLTWKTTVASSYQAMAMVVSASTGAAKNLQQFKLTSFDFQEAATVNVKYVDTTGHQLAQG
# Legend:
# Assay in all cases: glycan array binding signal (z-score within array); higher = stronger binding
# Conditions in all cases: glycan notation: IUPAC condensed, linker removed
# [1] = molecular target: Gal(b1-4)GlcNAc(b1-3)Gal(b1-4)[Fuc(a1-3)]GlcNAc(b1-3)Gal(b1-4)[Fuc(a1-3)]GlcNAc
# Outline: (§1)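 Columns mapping to the same glycan were averaged after glycan names were converted to IUPAC-condensed notation. The data come from 3228 arrays in the Consortium for Functional Glycomics database, limited to those with an available protein sequence. Binding is reported as a within-array Z-score averaged across arrays of one protein sequence and across linkers.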
# [2] = molecular target: Gal(b1-4)GlcNAc(b1-3)GalNAc
# Outline: as §1
# [3] = molecular target: Gal(b1-4)GlcNAc(b1-3)[Gal(b1-4)GlcNAc(b1-6)]Gal(b1-4)GlcNAc
# Outline: as §1
# [4] = molecular target: Gal(b1-4)GlcNAc(b1-3)[GlcNAc(b1-6)]Gal(b1-4)GlcNAc
# Outline: as §1
# [5] = molecular target: Gal(b1-4)GlcNAc(b1-6)Gal(b1-4)GlcNAc
# Outline: as §1
# [6] = molecular target: Gal(b1-4)GlcNAc(b1-6)Gal(b1-4)GlcNAc(b1-6)GalNAc
# Outline: as §1
# [7] = molecular target: Gal(b1-4)GlcNAc(b1-6)GalNAc
# Outline: as §1
# [8] = molecular target: Gal(b1-4)GlcNAc(b1-6)[Gal(b1-3)]GalNAc
# Outline: as §1
# [9] = molecular target: Gal3S(b1-3)GalNAc
# Outline: as §1
# [10] = molecular target: Gal3S(b1-3)GlcNAc
# Outline: as §1
# [11] = molecular target: Gal3S(b1-3)[Fuc(a1-4)]GlcNAc
# Outline: as §1
# [12] = molecular target: Gal3S(b1-4)Glc
# Outline: as §1
# [13] = molecular target: Gal3S(b1-4)Glc6S
# Outline: as §1
# [14] = molecular target: Gal3S(b1-4)GlcNAc
# Outline: as §1
# [15] = molecular target: Gal3S(b1-4)GlcNAc6S
# Outline: as §1
# [16] = molecular target: Gal3S(b1-4)[Fuc(a1-3)]Glc
# Outline: as §1
# [17] = molecular target: Gal3S4S(b1-4)GlcNAc
# Outline: as §1
# [18] = molecular target: Gal3S6S(b1-4)GlcNAc
# Outline: as §1
# [19] = molecular target: Gal3S6S(b1-4)GlcNAc6S
# Outline: as §1
# [20] = molecular target: Gal4S(b1-4)GlcNAc
# Outline: as §1
# [21] = molecular target: Gal4S6S(b1-4)GlcNAc
# Outline: as §1
# [22] = molecular target: Gal6S(b1-4)Glc
# Outline: as §1
# [23] = molecular target: Gal6S(b1-4)Glc6S
# Outline: as §1
# [24] = molecular target: Gal6S(b1-4)GlcNAc
# Outline: as §1
# [25] = molecular target: Gal6S(b1-4)GlcNAc6S
# Outline: as §1
# [26] = molecular target: GalNAc(a1-3)Gal
# Outline: as §1
# [27] = molecular target: GalNAc(a1-3)GalNAc
# Outline: as §1
# [28] = molecular target: GalNAc(b1-3)Gal
# Outline: as §1
# [29] = molecular target: GalNAc(b1-3)Gal(a1-4)Gal(b1-4)GlcNAc
# Outline: as §1
# [30] = molecular target: GalNAc(b1-3)GalNAc
# Outline: as §1
# [31] = molecular target: GalNAc(b1-4)GlcNAc
# Outline: as §1
# [32] = molecular target: Glc(a1-4)Glc
# Outline: as §1
# [33] = molecular target: Glc(a1-6)Glc(a1-6)Glc
# Outline: as §1
# [34] = molecular target: Glc(b1-4)Glc
# Outline: as §1
# [35] = molecular target: Glc(b1-6)Glc
# Outline: as §1
# [36] = molecular target: GlcA(b1-3)Gal
# Outline: as §1
# [37] = molecular target: GlcA(b1-3)GlcNAc
# Outline: as §1
# [38] = molecular target: GlcA(b1-6)Gal
# Outline: as §1
# [39] = molecular target: GlcNAc(a1-3)Gal(b1-4)GlcNAc
# Outline: as §1
# [40] = molecular target: GlcNAc(a1-6)Gal(b1-4)GlcNAc
# Outline: as §1
# [41] = molecular target: GlcNAc(b1-2)Gal(b1-3)GalNAc
# Outline: as §1
# [42] = molecular target: GlcNAc(b1-2)Man(a1-3)[GlcNAc(b1-2)Man(a1-6)]Man(b1-4)GlcNAc(b1-4)GlcNAc
# Outline: as §1
# [43] = molecular target: GlcNAc(b1-3)Gal
# Outline: as §1
# [44] = molecular target: GlcNAc(b1-3)Gal(b1-3)GalNAc
# Outline: as §1
# [45] = molecular target: GlcNAc(b1-3)Gal(b1-4)Glc
# Outline: as §1
# [46] = molecular target: GlcNAc(b1-3)Gal(b1-4)GlcNAc
# Outline: as §1
# [47] = molecular target: GlcNAc(b1-3)Gal(b1-4)GlcNAc(b1-3)Gal(b1-4)GlcNAc
# Outline: as §1
# [48] = molecular target: GlcNAc(b1-3)GalNAc
# Outline: as §1
# [49] = molecular target: GlcNAc(b1-3)Man
# Outline: as §1
# [50] = molecular target: GlcNAc(b1-3)[GlcNAc(b1-4)][GlcNAc(b1-6)]GlcNAc
# Outline: as §1
# [51] = molecular target: GlcNAc(b1-3)[GlcNAc(b1-6)]Gal(b1-4)GlcNAc
# Outline: as §1
# [52] = molecular target: GlcNAc(b1-3)[GlcNAc(b1-6)]GalNAc
# Outline: as §1
# [53] = molecular target: GlcNAc(b1-4)Gal(b1-4)GlcNAc
# Outline: as §1
# [54] = molecular target: GlcNAc(b1-4)GlcNAc
# Outline: as §1
# [55] = molecular target: GlcNAc(b1-4)GlcNAc(b1-4)GlcNAc
# Outline: as §1
# [56] = molecular target: GlcNAc(b1-4)GlcNAc(b1-4)GlcNAc(b1-4)GlcNAc(b1-4)GlcNAc
# Outline: as §1
# [57] = molecular target: GlcNAc(b1-4)GlcNAc(b1-4)GlcNAc(b1-4)GlcNAc(b1-4)GlcNAc(b1-4)GlcNAc
# Outline: as §1
# [58] = molecular target: GlcNAc(b1-4)[GlcNAc(b1-6)]GalNAc
# Outline: as §1
# [59] = molecular target: GlcNAc(b1-6)Gal(b1-4)GlcNAc
# Outline: as §1
# [60] = molecular target: GlcNAc(b1-6)GalNAc
# Outline: as §1
# [61] = molecular target: GlcNAc3Prop(b1-4)GlcNAc
# Outline: as §1
# [62] = molecular target: Kdn(a2-3)Gal(b1-3)GlcNAc
# Outline: as §1
# [63] = molecular target: Kdn(a2-3)Gal(b1-4)GlcNAc
# Outline: as §1
# [64] = molecular target: Man(a1-2)Man(a1-2)Man(a1-3)Man
# Outline: as §1
# [65] = molecular target: Man(a1-2)Man(a1-2)Man(a1-6)[Man(a1-3)]Man
# Outline: as §1
# [66] = molecular target: Man(a1-2)Man(a1-3)Man
# Outline: as §1
# [67] = molecular target: Man(a1-2)Man(a1-3)[Man(a1-2)Man(a1-6)]Man
# Outline: as §1
# [68] = molecular target: Man(a1-2)Man(a1-3)[Man(a1-2)Man(a1-6)]Man(a1-6)[Man(a1-2)Man(a1-2)Man(a1-3)]Man
# Outline: as §1
# [69] = molecular target: Man(a1-2)Man(a1-3)[Man(a1-2)Man(a1-6)]Man(a1-6)[Man(a1-2)Man(a1-2)Man(a1-3)]Man(b1-4)GlcNAc(b1-4)GlcNAc
# Outline: as §1
# [70] = molecular target: Man(a1-2)Man(a1-3)[Man(a1-6)]Man(a1-6)[Man(a1-2)Man(a1-3)]Man(b1-4)GlcNAc(b1-4)GlcNAc
# Outline: as §1
# [71] = molecular target: Man(a1-2)Man(a1-6)[Man(a1-3)]Man(a1-6)[Man(a1-2)Man(a1-2)Man(a1-3)]Man
# Outline: as §1
# [72] = molecular target: Man(a1-2)Man(a1-6)[Man(a1-3)]Man(a1-6)[Man(a1-2)Man(a1-2)Man(a1-3)]Man(b1-4)GlcNAc(b1-4)GlcNAc
# Outline: as §1
# [73] = molecular target: Man(a1-3)[Man(a1-6)]Man
# Outline: as §1
# [74] = molecular target: Man(a1-3)[Man(a1-6)]Man(a1-6)[Man(a1-2)Man(a1-3)]Man(b1-4)GlcNAc(b1-4)GlcNAc
# Outline: as §1
binder,measurement,setting,value
B1,glycan array binding signal (z-score),[1],-0.302
same,glycan array binding signal (z-score),[2],-0.347
same,glycan array binding signal (z-score),[3],0.406
same,glycan array binding signal (z-score),[4],-0.708
same,glycan array binding signal (z-score),[5],-0.654
same,glycan array binding signal (z-score),[6],-0.737
same,glycan array binding signal (z-score),[7],-0.505
same,glycan array binding signal (z-score),[8],-0.319
same,glycan array binding signal (z-score),[9],-0.041
same,glycan array binding signal (z-score),[10],0.745
same,glycan array binding signal (z-score),[11],1.06
same,glycan array binding signal (z-score),[12],0.148
same,glycan array binding signal (z-score),[13],0.429
same,glycan array binding signal (z-score),[14],0.304
same,glycan array binding signal (z-score),[15],0.258
same,glycan array binding signal (z-score),[16],-0.246
same,glycan array binding signal (z-score),[17],0.117
same,glycan array binding signal (z-score),[18],0.496
same,glycan array binding signal (z-score),[19],0.933
same,glycan array binding signal (z-score),[20],0.245
same,glycan array binding signal (z-score),[21],0.846
same,glycan array binding signal (z-score),[22],0.521
same,glycan array binding signal (z-score),[23],0.095
same,glycan array binding signal (z-score),[24],0.156
same,glycan array binding signal (z-score),[25],1.22
same,glycan array binding signal (z-score),[26],0.532
same,glycan array binding signal (z-score),[27],0.128
same,glycan array binding signal (z-score),[28],-0.617
same,glycan array binding signal (z-score),[29],4.17
same,glycan array binding signal (z-score),[30],2.15
same,glycan array binding signal (z-score),[31],0.161
same,glycan array binding signal (z-score),[32],-0.331
same,glycan array binding signal (z-score),[33],-0.457
same,glycan array binding signal (z-score),[34],-0.108
same,glycan array binding signal (z-score),[35],0.102
same,glycan array binding signal (z-score),[36],-0.216
same,glycan array binding signal (z-score),[37],-0.177
same,glycan array binding signal (z-score),[38],-0.517
same,glycan array binding signal (z-score),[39],-0.038
same,glycan array binding signal (z-score),[40],-0.056
same,glycan array binding signal (z-score),[41],-0.421
same,glycan array binding signal (z-score),[42],-0.399
same,glycan array binding signal (z-score),[43],-0.377
same,glycan array binding signal (z-score),[44],0.2
same,glycan array binding signal (z-score),[45],-0.18
same,glycan array binding signal (z-score),[46],-0.184
same,glycan array binding signal (z-score),[47],-0.254
same,glycan array binding signal (z-score),[48],0.303
same,glycan array binding signal (z-score),[49],0.01
same,glycan array binding signal (z-score),[50],0.293
same,glycan array binding signal (z-score),[51],-0.769
same,glycan array binding signal (z-score),[52],0.656
same,glycan array binding signal (z-score),[53],0.203
same,glycan array binding signal (z-score),[54],-0.476
same,glycan array binding signal (z-score),[55],0.583
same,glycan array binding signal (z-score),[56],0.985
same,glycan array binding signal (z-score),[57],0.596
same,glycan array binding signal (z-score),[58],0.543
same,glycan array binding signal (z-score),[59],-0.605
same,glycan array binding signal (z-score),[60],-0.949
same,glycan array binding signal (z-score),[61],-0.42
same,glycan array binding signal (z-score),[62],1.03
same,glycan array binding signal (z-score),[63],-0.143
same,glycan array binding signal (z-score),[64],-0.341
same,glycan array binding signal (z-score),[65],0.115
same,glycan array binding signal (z-score),[66],3.36
same,glycan array binding signal (z-score),[67],0.712
same,glycan array binding signal (z-score),[68],0.457
same,glycan array binding signal (z-score),[69],-0.014
same,glycan array binding signal (z-score),[70],0.227
same,glycan array binding signal (z-score),[71],-0.529
same,glycan array binding signal (z-score),[72],0.436
same,glycan array binding signal (z-score),[73],0.126
same,glycan array binding signal (z-score),[74],-0.04

# — the supplement of paper PMC8728848
